Over roughly 33,000 sequences, “E-score (-0.5 to 0.5)” has its median near -0.013; the highest 2% begin near 0.3. The list shows a part of the results.
target: T1, Msn1 (UniProt P22148); assay: PBM E-score (8-mer binding enrichment) (E-score (-0.5 to 0.5)); higher = stronger / more preferred TF binding; most listed sequences are background and not binding sites; settings: protein concentration: 200 nM; construct: GST-full length
T1 sequence: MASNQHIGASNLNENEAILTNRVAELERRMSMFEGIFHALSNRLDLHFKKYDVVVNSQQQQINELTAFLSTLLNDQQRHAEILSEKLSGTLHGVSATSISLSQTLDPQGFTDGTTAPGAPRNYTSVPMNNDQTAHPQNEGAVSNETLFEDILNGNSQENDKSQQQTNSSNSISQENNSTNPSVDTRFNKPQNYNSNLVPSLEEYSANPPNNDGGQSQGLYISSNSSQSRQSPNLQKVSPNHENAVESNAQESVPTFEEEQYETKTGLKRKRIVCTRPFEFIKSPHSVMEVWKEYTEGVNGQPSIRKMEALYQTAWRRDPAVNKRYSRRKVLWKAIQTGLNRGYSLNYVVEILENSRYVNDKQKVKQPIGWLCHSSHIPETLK
Method in brief: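 Bound GST-tagged yeast transcription factors, applied at about 100-200 nM to double-stranded universal all-10-mer Agilent arrays, were detected with fluorescent anti-GST. Scans were normalised with masliner. A modified Wilcoxon-Mann-Whitney statistic, the E-score, was assigned to each ungapped eight-base word pooled with its reverse complement by the Universal PBM Analysis Suite.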

| Sequence | PBM E-score |
| --- | --- |
| CGTTCGGC | -0.0508 |
| AAAAGAGC | -0.0499 |
| CGTAACTA | -0.0861 |
| ATGTAGGA | -0.0259 |
| ATCGACAT | 0.279 |
| CGGTTTTC | 0.0994 |
| AGTATATC | 0.0949 |
| GAAGGCGA | -0.267 |
| ATCATACC | 0.0673 |
| GGCTACCC | -0.338 |
| GGATCCGA | -0.0542 |
| ATTATCTA | 0.209 |
| AAAAAACA | 0.231 |
| ACCCGGAC | 0.152 |
| GTTATGCA | -0.16 |
| GACATGTC | 0.455 |
| CCTGAGAA | -0.0528 |
| TCAGTCGA | 0.117 |
| AAGAAACG | 0.0621 |
| CCTGCCTA | -0.0808 |
| AGTTGTTG | 0.0635 |
| CAGAGCGG | -0.156 |
| ATATACTA | 0.116 |
| CCCGTGTA | -0.1 |
| ATTATGGG | -0.0595 |

| Sequence | PBM E-score |
| --- | --- |
| CATGACGC | -0.012 |
| ACTTCTGC | 0.0517 |
| ATAGAATA | 0.0864 |
| AAGGAGGC | -0.336 |
| CAAGACCA | -0.135 |
| CCCCCTCG | -0.307 |
| GTCTGCTA | 0.213 |
| CAGGAGAG | -0.162 |
| AGGGTGTC | -0.134 |
| CCAAGAGG | -0.25 |
| AGAGCAAA | -0.219 |
| AGAGATAC | 0.0813 |
| AAGATATA | 0.0934 |
| ATCTATCA | 0.141 |
| CTGCAACA | -0.111 |
| CCTGTGTA | 0.228 |
| AATACTAT | 0.0477 |
| CCCTCGAC | -0.145 |
| CGCGGGGA | 0.0222 |
| ACCCGTAA | -0.0817 |
| GTACGTAC | 0.00521 |
| GCAAAACA | -0.0693 |
| GTCATTCA | 0.119 |
| ATGACAAG | 0.298 |
| GACTTGGC | -0.192 |

| Sequence | PBM E-score |
| --- | --- |
| GAGCCTTA | -0.168 |
| CGTCGGCC | -0.107 |
| CGCCATAG | -0.219 |
| ATAGCACC | -0.134 |
| CAGCATAG | -0.0968 |
| CAGAGTCG | -0.156 |
| AGGTCTTA | -0.0337 |
| ATGTAAAG | -0.0428 |
| ACGCAATG | 0.0218 |
| CGGCCATA | -0.022 |
| CACGGTGA | -0.012 |
| CTCGGCGC | 0.0354 |
| GAGACCTC | -0.0881 |
| ACACACGC | 0.0548 |
| AACCGTGA | -0.0232 |
| ACCTCGCA | -0.0893 |
| AACAGCAA | 0.0783 |
| CGCCAAGC | -0.198 |
| AAGAGACG | 0.147 |
| AGTACGCA | -0.215 |
| CGGCTCTA | -0.00727 |
| AAGGAGTG | -0.146 |
| ATGTACCG | 0.279 |
| ACCAATAT | 0.219 |
| CAGACTAA | 0.146 |

| Sequence | PBM E-score |
| --- | --- |
| CTTACCCC | -0.24 |
| ACTTGTTG | -0.109 |
| CTCAGAAA | 0.00503 |
| CAACAGCA | 0.0458 |
| AATCATAG | -0.0142 |
| ATATTGAA | 0.155 |
| CAAACGAG | 0.099 |
| CTCTAATC | -0.0859 |
| CACGAGTC | 0.0105 |
| GACCGGAC | 0.187 |
| CAGCGGAG | -0.259 |
| ACCTTCGC | -0.13 |
| AGCTGCGA | -0.0645 |
| GCCATTCA | -0.00319 |
| GCTGATGA | -0.156 |
| ATTCTTTG | 0.0847 |
| ATTAAGGA | 0.122 |
| CTAGTGAA | -0.0591 |
| ATCCCCAC | -0.131 |
| ATGTCTTC | 0.293 |
| CCAGGGAC | 0.0428 |
| ACCCAAAC | 0.174 |
| CTTGCGCC | -0.238 |
| CAGGTCCA | 0.0853 |
| CCGACTAC | -0.0814 |

| Sequence | PBM E-score |
| --- | --- |
| ATCGACGA | -0.0285 |
| CACCACTG | -0.0655 |
| ACGAAGCG | -0.0822 |
| AGTACGTA | 0.157 |
| CAAAGTGG | -0.24 |
| GTGACCGA | -0.0453 |
| GACCGACC | 0.0347 |
| GGTAGACC | -0.148 |
| AGCGCCCT | -0.213 |
| AAGAGGCC | -0.249 |
| GTTCGTGA | -0.199 |
| AACGGGTC | -0.155 |
| AGCAAGAT | 0.0426 |
| GACGCGAC | -0.0569 |
| GTTTTGTA | 0.2 |
| CTCTTGAC | 0.0314 |
| CTCCCTTC | -0.387 |
| CGTACATA | 0.296 |
| ACGAGAGG | -0.0785 |
| TACTTCTA | 0.0186 |
| AATACAGA | 0.189 |
| ACCCGACT | 0.0802 |
| GCGAATCC | -0.0802 |
| AAGCCGAG | 0.0736 |
| TCTATTCA | 0.123 |

| Sequence | PBM E-score |
| --- | --- |
| AGCGGTCA | -0.0209 |
| GGCTGACA | -0.0146 |
| CATTCGGC | 0.0202 |
| ACGGCCTA | -0.0688 |
| AAAGGTGG | -0.0633 |
| TCCGCGCA | 0.18 |
| AGATGGCA | -0.0264 |
| ACGATTAA | -0.00425 |
| ACTCAGAT | -0.0382 |
| ACCTGAGC | -0.0275 |
| CTGCGCGC | 0.069 |
| GTATTACA | 0.0681 |
| AACTATCA | 0.0801 |
| CGGTGCCA | -0.201 |
| AAAGCCCG | -0.00367 |
| AATTACCG | 0.0583 |
| AACATTCG | -0.0558 |
| GTTCAGAA | -0.0005 |
| ACAGACCC | -0.139 |
| TACCTGAA | 0.0491 |
| AACAAGAA | 0.0572 |
| AGTGGATG | -0.145 |
| AATACCAC | -0.0531 |
| ATTGCCAG | 0.0682 |
| AGCACTGC | -0.202 |

| Sequence | PBM E-score |
| --- | --- |
| AAGTCAGC | 0.0995 |
| AATTTCGG | 0.0993 |
| ACTGTCCT | 0.151 |
| AAATTTTG | 0.108 |
| ATTTGGCG | -0.151 |
| AGACTCGA | -0.00201 |
| GGTACCAC | -0.0136 |
| ATAGTACC | 0.11 |
| GCATAAGA | -0.0375 |
| CTCGGCTA | -0.0716 |
| CTCTGGAC | 0.0287 |
| TTCGCCAA | -0.261 |
| CTGGTACC | -0.121 |
| ATGCGGAC | 0.16 |
| CGTCAATA | -0.138 |
| ACAGTGAC | 0.123 |
| CATCGGCG | -0.152 |
| GCTTCTCC | -0.267 |
| ATAGCGCG | 0.0211 |
| CCGCCACC | -0.232 |
| ACTCTGCG | 0.0422 |
| ACACTCTG | -0.195 |
